Experimental data taken from PubChem BioAssay AID1508624 (National Center for Advancing Translational Sciences (NCATS), 2021).
Among all 48,000 compounds or so, about 120 (0.25%) were called active. Roughly 4% stayed inconclusive and do not appear here. The call rests on the fitted dose curve; in most records, active means well fitted activation curve with a large enough effect; inconclusive means small, poorly fitted or top-dose-only effect, or another doubt; inactive means no such curve, though single readings can be large or run the other way. Some of the results follow.

Assay: Primary qHTS for Identification of Small Molecule Activators of Huntingtin-Antisense Promoter Activity; further: nearly all actives have a fitted effect of over 55% in size
Settings: HEK293 HTT-AS promoter firefly luciferase reporter, 24 h; series mostly up to 57.5 µM; activity change, positive = activation: at the top concentration
Summary of the method: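 HEK293 cells carrying firefly luciferase reporters were seeded at 2,500 per well in Opti-MEM and cultured for 24 h. They were then treated with compounds at up to 57.5 uM final for 24 h at 37 degrees C before Dual-Glo luminescence readout.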

Activity change, positive = activation, inactive:
O=C(CN1C(=O)CCc2cc(S(=O)(=O)N3CCOCC3)ccc21)NCc1ccc(F)cc1 -14.5%
Cc1ccc(CNC(=O)c2ccc3c(c2)nc(C)n3-c2cc(C)cc(C)c2)cc1 -15%
COc1cccc(NC(=O)CNC(=O)Cn2c(C)cc3ccccc3c2=O)c1 -2.4%
Cc1ccc(N(CC(=O)NCCc2ccccc2)S(=O)(=O)N(C)C)cc1 -12.4%
Cn1ccc2cc(S(=O)(=O)N3CCC(C(=O)NCCc4ccccc4)CC3)ccc21 -11.3%
N#Cc1ccccc1NC(=O)Cn1cnc2onc(-c3cccc(F)c3)c2c1=O 4.63%
CCn1cc(C(=O)N2CCN(c3cccc(Cl)c3)CC2)c(=O)c2cc(S(=O)(=O)N3CCCCC3)ccc21 -7.87% [at 11.5 µM, percent change from vehicle, -100% = no light]
COc1ccc(OC)c(NC(=O)Cn2c(=O)n(Cc3ccccc3)c(=O)c3ccccc32)c1 0%
COc1ccc(OC)c(NC(=O)N2CCN(S(=O)(=O)c3ccc4c(ccn4C)c3)CC2)c1 -22.6%
COc1ccc(C(CNC(=O)c2oc3ccc(C)cc3c2C)N2CCOCC2)cc1 (centres undefined) -8.55%
COc1cc(OC)cc(C(=O)Nc2ccc3nc(N4CCCCC4)cc(C)c3c2)c1 -10%
CCCn1c(-c2ccc(S(=O)(=O)N3CCOCC3)cc2)csc1=Nc1ccc(OCC)cc1 -25.9%
CC(C)Cn1c(=O)c2ccccc2n2c(CCC(=O)N3CCN(c4ccccc4F)CC3)nnc12 -2.77%
Cc1ccc2nc(-c3ccc(O)cc3)c(Nc3ccc4c(c3)OCCO4)n2c1 0.832%
CCCSCCCNC(=O)C1CCN(c2nn3cc(-c4ccc(F)cc4)nc3s2)CC1 1.09%
O=C(NCc1ccccc1Cl)C(=O)NCC(c1cccs1)S(=O)(=O)c1cccs1 (centres undefined) -37%
CN(C)C(=N)N=C(N)N
O=C(c1cc(-c2ccc(Br)cc2)n[nH]1)N1CCN(S(=O)(=O)c2ccc(Br)cc2)CC1 -29.1%
CCC(=O)N1N=C(c2ccc(OC)cc2)CC1c1cn(-c2ccccc2)nc1-c1cccs1 (centres undefined) -17.5%
CC(=O)N1c2ccc(S(=O)(=O)N3CCN(c4ccc(C)cc4C)CC3)cc2CC1C (centres undefined) -52.6%
O=C(Cn1ccn(-c2ccc(F)cc2)c(=O)c1=O)NCCc1ccccc1 -16.6%
CCOc1ccc(N(c2nc(-c3ccc(OC)c(OC)c3)no2)c2nc(-c3ccc(OC)c(OC)c3)no2)cc1 17%
CCOC(=O)c1cnc2ccc(C)cc2c1Nc1ccc(OCc2ccccc2Cl)cc1 -18.6%
COC(=O)CSc1nc2c(cnn2-c2ccc(F)cc2)c(=O)[nH]1 -0.821%
COc1ccc2oc(-c3ccc(C)c(NC(=O)c4cccnc4)c3)nc2c1 9.07%
COc1cc(OC)c(NC(=O)CSc2nccn2C)cc1Cl -5.02%
CC1CCN(c2oc(-c3cccs3)nc2S(=O)(=O)c2ccc(Cl)cc2)CC1 -19.4%
Cc1ccc(CNC(=O)c2ccc(-n3c(C)cc4c3CCCC4)cc2)cc1 -11.2%
Cc1ccc(OCC(=O)Nc2ccc3nc(SCC(=O)N4CCCC4)sc3c2)cc1 3.82%
O=C(CSc1nc2cc(C(=O)NC3CCCC3)ccc2c(=O)n1CC1CCCO1)c1ccc(F)cc1 (centres undefined) -0.935%
Cc1ccc(C)c(S(=O)(=O)c2cn(Cc3ccccc3)c3cc(F)c(F)cc3c2=O)c1 -6.49%
CNC(=O)c1ccc2c(c1)N=C(C)c1cc(C)ccc1S2 -23.6%
CCOC(=O)c1c(SCC(=O)Nc2nc3ccc(C)cc3s2)nc(=O)[nH]c1C -3.41%
Cc1cccc(CSc2cn(CC(=O)N3CCCCC3)c3ccccc23)c1 3.6%
Cc1cc(C)c2sc(N(Cc3cccnc3)C(=O)CCS(=O)(=O)c3ccccc3)nc2c1 -13%
CC(C)(C)C1CCc2oc3ccc(NS(=O)(=O)c4cc(Cl)ccc4Cl)cc3c2C1 (centres undefined) -18.8%
O=C(Cn1cc(SCc2cccc(F)c2)c2ccccc21)N1CCOCC1 24.9%
NC(=O)c1ncn([C@@H]2O[C@H](CO)[C@@H](O)[C@@H]2O)n1 -9.94%
CCOc1ccc(-n2c(=O)c3c(C)c(C)sc3n(CC(=O)c3ccccc3)c2=O)cc1 3.94%
CCN(CC)CCCNC(=O)c1c(C)oc2ncn(CC(C)C)c(=O)c12 -5.5%
CCc1ccc(-n2nc(C)c3c(C)cc(=O)n(CC(=O)Nc4ccc(C)c(F)c4)c32)cc1 6.3%
CCCCN(C)S(=O)(=O)c1cc(-c2nnc3c4ccccc4c(C)nn23)ccc1C 21.4%
CN(C)c1ccc(NC(=O)CCSc2nc(-c3ccco3)cc(C(F)(F)F)n2)cc1 -3.16%
COc1cccc(OC)c1-c1cc(C(=O)NC2(C(=O)O)C3CC4CC(C3)CC2C4)nn1-c1ccnc2cc(Cl)ccc12 (centres undefined) -7.94%
CC1CCc2c(sc(NC(=O)CCCOc3ccc(C(C)(C)C)cc3)c2C(N)=O)C1 (centres undefined) -16%
COc1cc(Br)c(C2CC(=O)Nc3cc(OC)c(OC)c(OC)c32)cc1OC (centres undefined) -26.9%
CCc1ccc(NC(=O)CC2C(=O)OCCN2CC)cc1 (centres undefined) -19.3%
Cc1oc(-c2cccc(Br)c2)nc1CN1CCC(C(=O)NCCc2ccc(Cl)cc2)CC1 10.2%
CCOC(=O)c1ccc(N2C(=O)c3n[nH]c(-c4cccs4)c3C2c2cccc(F)c2)cc1 (centres undefined) -25%
CCOc1ccccc1NC(=O)C(CC(C)C)NS(=O)(=O)c1ccc2c(c1)CCN2C(C)=O (centres undefined) 0%
CCc1ccccc1NC(=O)Cn1ncc2c(C)n(Cc3ccccc3F)c(C)c2c1=O -15%
CC(C)CNC(=O)CCSc1nc(-c2ccc3c(c2)OCO3)cc(C(F)(F)F)n1 -12.9%
O=C(Cn1c(=O)n(Cc2nc(-c3ccccc3)no2)c(=O)c2cc3c(cc21)OCO3)Nc1ccc(Cl)cc1 -18.1%
Cc1ccc(C)c(N2CCN(c3ccc(NC(=O)c4cccs4)cc3C(=O)O)CC2)c1 5.8%
CC(C)[C@H](N)C(=O)OCCOCn1cnc2c(=O)[nH]c(N)nc21
CCCc1nnc(NC(=O)Cc2coc3cc(C)cc(C)c23)s1 -19.2%
CCCN1CCN(CCCNC(=O)c2cnn(-c3ccc(F)cc3)c2-n2cccc2)CC1 -15.3%
CCOc1ccc(Nc2nc3ccccc3n3c(CC)nnc23)cc1 -9.88%
O=C(Cn1c(=O)n(-c2ccccc2)c(=O)c2sc3ccccc3c21)N1CCCC1 8.19%
